Measurements published in the supplement of paper PMC12582362.
Where a name gives a salt, the structure may show the parent alone. About 30 (2%) of roughly 1,500 compounds showed activity.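 Rule for the calls: active = robust z-score below -2; a few such results were not called.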 The list shows a part of the results.

The molecules below were run on optoTopBP1 Flp-In 293 T-REx (HEK293) cells (assay: light-induced TopBP1 condensate (nuclear foci) count, plate-normalised robust z-score vs non-control wells; higher = more TopBP1 condensates (negative = condensation inhibitor), active = hit call of the paper). Details: 10 µM; incubation time 2 h.

Structure (SMILES) | light-induced TopBP1 condensate (z-score)
Clc1ccc(C(OCCN2CCCCC2)c2ccccc2)cc1 (stereo unspecified) [Cloperastine hydrochloride] | inactive: -0.56
CN1CCN(C(=O)OC2c3nccnc3C(=O)N2c2ccc(Cl)cn2)CC1 (stereo unspecified) [Zopiclone] | inactive: -0.995
C[C@]12CC[C@H](O)C[C@H]1CC[C@@H]1[C@@H]2C[C@@H](O)[C@]2(C)[C@@H](C3=CC(=O)OC3)CC[C@]12O [Digoxigenin] | active: -2.51
CC(Cc1ccccc1)NCCC(c1ccccc1)c1ccccc1 (stereo unspecified) [Prenylamine lactate] | inactive: -0.953
CC(=O)NC1CCSC1=O (racemic) [N-Acetyl-DL-homocysteine Thiolactone] | inactive: -0.247
NC(=O)C[S+]([O-])C(c1ccccc1)c1ccccc1 (stereo unspecified) [Modafinil] | inactive: 1.31
CN1C(=O)COc2c(C(=O)NC3CN4CCC3CC4)cc(Cl)cc21 (stereo unspecified) [Azasetron hydrochloride] | inactive: 0.519
Cc1cccc(C)c1NC1=NCCCS1 [Xylazine] | inactive: -0.729
C=C(C)[C@@H]1[C@H]2OC(=O)[C@@H]1[C@]1(O)C[C@H]3O[C@]34C(=O)O[C@H]2[C@]14C [Picrotoxinin] | inactive: 2.68
CC(C)c1c(CN(C)C(C)Cc2ccccc2)n(C)n(-c2ccccc2)c1=O (stereo unspecified) [Famprofazone] | inactive: 0.549
NC(=O)CN1CCCC1=O [Piracetam] | inactive: -0.343
CC(=O)OCC(=O)[C@H]1CC[C@H]2[C@@H]3CC[C@H]4C[C@H](O)CC[C@]4(C)[C@H]3C(=O)C[C@]12C [Alfadolone acetate] | inactive: 0.262
CO[C@]12C[C@@H](COC(=O)c3cncc(Br)c3)CN(C)[C@@H]1Cc1cn(C)c3cccc2c13 [Nicergoline] | inactive: -0.703
CC(=O)OCC1=C(C(=O)O)N2C(=O)[C@@H](N)[C@H]2SC1 [Cephalosporanic acid, 7-amino] | inactive: 0.816
C[N+]12CCC(CC1)C(OC(=O)C(O)(c1ccccc1)c1ccccc1)C2 (stereo unspecified) [Clidinium bromide] | inactive: 0.288
C#C[C@]1(O)C=C[C@H]2[C@@H]3CCC4=CC(=O)CC[C@@H]4[C@H]3CC[C@@]21CC [Gestodene] | inactive: -0.424

Structure (SMILES) | light-induced TopBP1 condensate (z-score)
C[C@]12Cc3c[nH]nc3C[C@@H]1CC[C@@H]1[C@@H]2CC[C@@]2(C)[C@H]1CC[C@]2(C)O [Stanozolol] | inactive: 0.285
CC(C)C[C@H](CN)CC(=O)O [Pregabalin] | inactive: -0.842
CC(C)(C)NCC(O)c1ccccc1Cl (stereo unspecified) [Tulobuterol Hydrochloride] | inactive: 0.914
CC(C)(C)NCC(O)c1ccccc1Cl (stereo unspecified) [Tulobuterol] | inactive: 0.0147
COc1cc([C@@H]2c3cc4c(cc3[C@H](O)[C@H]3COC(=O)[C@H]23)OCO4)cc(OC)c1OC [Podophyllotoxin] | active: -2.43
CCNC1(c2cccs2)CCCCC1=O (stereo unspecified) [Tiletamine hydrochloride] | inactive: 0.129
CCC1(c2cccc(O)c2)CCCCN(C)C1 (stereo unspecified) [Meptazinol hydrochloride] | inactive: 1.42
C[C@@H]1CC[C@H]2[C@@H](C)C(=O)O[C@@H]3O[C@@]4(C)CC[C@@H]1[C@]32OO4 [Artemisinin] | inactive: 0.357
CCN(C(C)=O)c1cccc(-c2ccnc3c(C#N)cnn23)c1 [Zaleplon] | inactive: -0.711
NCCc1c[nH]c2ccc(O)cc12 [Serotonin hydrochloride] | inactive: 0.329
CCC(COC(=O)c1cc(OC)c(OC)c(OC)c1)(c1ccccc1)N(C)C (stereo unspecified) [Trimebutine] | inactive: -0.833
COc1ccc(Cc2nccc3cc(OC)c(OC)cc23)cc1OC [Papaverine hydrochloride] | inactive: -0.0743
CCC1(CC)C(=O)C=CNC1=O [Pyrithyldione] | inactive: 0.505
CC(C)(C)NCC(O)c1cc(Cl)c(N)c(Cl)c1 (stereo unspecified) [Clenbuterol hydrochloride] | inactive: 0.51
Fc1ccc(C(OCCN2CCN(CCCc3ccccc3)CC2)c2ccc(F)cc2)cc1 | inactive: 0.413
